The values that follow come from the supplement of paper PMC4604168 (melanoma cell lines).

The structures appear in SMILES notation. The list shows a part of the results. Single values are uncertain, as repeats are few or missing.
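Note: cell number obtained by counting DAPI-stained nuclei in high-throughput microscope images with image analysis software, screen run in 1,536-well plates.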

For this test, the system named is SkMel5. In words: cell count relative to DMSO control; melanoma cells; higher = more viable cells. The conditions noted are these: library dose: low library concentration; 72 h.
`CC(=O)O[C@@]12CO[C@@H]1C[C@H](O)[C@@]1(C)C(=O)[C@H](O)C3=C(C)[C@@H](OC(=O)[C@H](O)[C@@H](NC(=O)OC(C)(C)C)c4ccccc4)C[C@@](O)([C@@H](OC(=O)c4ccccc4)[C@H]21)C3(C)C` [Docetaxel] + CN(NC(=O)CC(=O)NN(C)C(=S)c1ccccc1)C(=S)c1ccccc1 [STA4783] (first compound 0.0001 µM, partner dose 0.006 µM) yielded a cell count of 65.9%.

Molecule `CC(=O)O[C@@]12CO[C@@H]1C[C@H](O)[C@@]1(C)C(=O)[C@H](O)C3=C(C)[C@@H](OC(=O)[C@H](O)[C@@H](NC(=O)OC(C)(C)C)c4ccccc4)C[C@@](O)([C@@H](OC(=O)c4ccccc4)[C@H]21)C3(C)C` [Docetaxel] + Cc1ccc(NC(=O)c2cccc(N(C)C)c2)cc1NC(=O)c1ccc(O)cc1 [ZM336372] (first compound 0.0001 µM, partner dose 2 µM) returned a cell count of 87.3%.

In the case of `Nc1ncn([C@H]2C[C@H](O)[C@@H](CO)O2)c(=O)n1` [decitabine] + CO[C@@H]1[C@H](N(C)C(=O)c2ccccc2)C[C@H]2O[C@]1(C)n1c3ccccc3c3c4c(c5c6ccccc6n2c5c31)C(=O)NC4 [Midostaurin] (first compound 0.1 µM, partner dose 0.08 µM), the cell count came to 100%.

`Nc1ccn([C@@H]2O[C@H](CO)[C@@H](O)C2(F)F)c(=O)n1` [gemcitabine] + CCc1ccc(CCOc2ccc(CC3SC(=O)NC3=O)cc2)nc1 [pioglitazone] (first compound 0.0004 µM, partner dose 2 µM): the cell count came out at 103%.

`CC(=O)c1c(C)c2cnc(Nc3ccc(N4CCNCC4)cn3)nc2n(C2CCCC2)c1=O` [palbociclib] + C=CCn1c(=O)c2cnc(Nc3ccc(N4CCN(C)CC4)cc3)nc2n1-c1cccc(C(C)(C)O)n1 [MK1775] (first compound 0.04 µM, partner dose 0.02 µM) registered a cell count of 64.8%.

As to `CC(=O)c1c(C)c2cnc(Nc3ccc(N4CCNCC4)cn3)nc2n(C2CCCC2)c1=O` [palbociclib] + Oc1cc(-c2nc(-c3ccccc3)[nH]c2-c2ccncc2)ccc1Cl [L779450] (first compound 0.04 µM, partner dose 0.2 µM), the cell count was found to be 71.3%.

`Nc1ncn([C@H]2C[C@H](O)[C@@H](CO)O2)c(=O)n1` [decitabine] + c1cc(-c2cnn3cc(-c4ccc(OCCN5CCCCC5)cc4)cnc23)ccn1 [Dorsomorphin] (first compound 0.1 µM, partner dose 0.4 µM) came in with a cell count of 114%.

`Nc1ncn([C@H]2C[C@H](O)[C@@H](CO)O2)c(=O)n1` [decitabine] + O=C(Nc1ccccc1)c1cc([N+](=O)[O-])ccc1Cl [GW9662] (first compound 0.1 µM, partner dose 2 µM) yielded a cell count of 109%.

The molecule `Nc1ncn([C@H]2C[C@H](O)[C@@H](CO)O2)c(=O)n1` [decitabine] + O=C(Nc1cccc(Cl)c1)Nc1ncc(CCNc2ncnc3ccsc23)s1 [SNS314] (first compound 0.1 µM, partner dose 0.0008 µM) had a cell count of 107%.

`CC(=O)O[C@@]12CO[C@@H]1C[C@H](O)[C@@]1(C)C(=O)[C@H](O)C3=C(C)[C@@H](OC(=O)[C@H](O)[C@@H](NC(=O)OC(C)(C)C)c4ccccc4)C[C@@](O)([C@@H](OC(=O)c4ccccc4)[C@H]21)C3(C)C` [Docetaxel] + Cn1cncc1[C@@](N)(c1ccc(Cl)cc1)c1ccc2c(c1)c(-c1cccc(Cl)c1)cc(=O)n2C [tipifarnib] (first compound 0.0001 µM, partner dose 0.01 µM) gave a cell count of 72%.

With `Nc1nc(F)nc2c1ncn2[C@@H]1O[C@H](CO)[C@@H](O)[C@@H]1O` [fludarabine] + CC1(C)NC(=O)N(c2ccc([N+](=O)[O-])c(C(F)(F)F)c2)C1=O [nilutamide] (first compound 0.2 µM, partner dose 1 µM), the cell count was determined as 50.7%.

For the molecule `Nc1ncn([C@H]2C[C@H](O)[C@@H](CO)O2)c(=O)n1` [decitabine] + O=C(CCCCCCC(=O)Nc1ccccc1)NO [vorinostat] (first compound 0.1 µM, partner dose 0.08 µM), the cell count was 105%.

`CC(=O)c1c(C)c2cnc(Nc3ccc(N4CCNCC4)cn3)nc2n(C2CCCC2)c1=O` [palbociclib] + COc1ccc(-c2ccc3c(N4CCOCC4)nc(N4C[C@@H](C)O[C@@H](C)C4)nc3n2)cc1CO [KU0063794] (first compound 0.04 µM, partner dose 0.02 µM) registered a cell count of 90.5%.

Consider `Nc1nc(F)nc2c1ncn2[C@@H]1O[C@H](CO)[C@@H](O)[C@@H]1O` [fludarabine] + O=C(O)C(=O)Nc1sc2c(c1C(=O)O)CCNC2 [TCS401] (first compound 0.2 µM, partner dose 1.66667 µM), for which the cell count was found to be 65.1%.

`Nc1ncn([C@H]2C[C@H](O)[C@@H](CO)O2)c(=O)n1` [decitabine] + COc1cc(Nc2ncc(F)c(Nc3ccc4c(n3)NC(=O)C(C)(C)O4)n2)cc(OC)c1OC [Tamatinib] (first compound 0.1 µM, partner dose 0.4 µM): the cell count was 87.6%.

With `Nc1nc(F)nc2c1ncn2[C@@H]1O[C@H](CO)[C@@H](O)[C@@H]1O` [fludarabine] + CCc1ccc(CCOc2ccc(CC3SC(=O)NC3=O)cc2)nc1 [pioglitazone] (first compound 0.2 µM, partner dose 2 µM), the cell count was 63.9%.

Regarding `Nc1ccn([C@@H]2O[C@H](CO)[C@@H](O)C2(F)F)c(=O)n1` [gemcitabine] + O=C(Nc1cccc(Cl)c1)Nc1ncc(CCNc2ncnc3ccsc23)s1 [SNS314] (first compound 0.0004 µM, partner dose 0.0008 µM), the cell count amounted to 104%.

On to `Nc1ccn([C@@H]2O[C@H](CO)[C@@H](O)C2(F)F)c(=O)n1` [gemcitabine] + CN(C)S(=O)(=O)c1ccc2c(c1)/C(=C/c1cc3c([nH]1)CCCC3)C(=O)N2 [SU6656] (first compound 0.0004 µM, partner dose 0.4 µM), for which the cell count worked out at 91.4%.

Molecule `Nc1ncn([C@H]2C[C@H](O)[C@@H](CO)O2)c(=O)n1` [decitabine] + COc1cc(N2CCC(N3CCN(C)CC3)CC2)ccc1Nc1ncc(Cl)c(Nc2ccccc2S(=O)(=O)C(C)C)n1 [NVP-TAE684] (first compound 0.1 µM, partner dose 0.08 µM) displayed a cell count of 89.4%.

As for `CC(=O)O[C@@]12CO[C@@H]1C[C@H](O)[C@@]1(C)C(=O)[C@H](O)C3=C(C)[C@@H](OC(=O)[C@H](O)[C@@H](NC(=O)OC(C)(C)C)c4ccccc4)C[C@@](O)([C@@H](OC(=O)c4ccccc4)[C@H]21)C3(C)C` [Docetaxel] + CCCCCCCCCCCC1=C(O)C(=O)C=C(O)C1=O [Embelin] (first compound 0.0001 µM, partner dose 1.2 µM), the cell count came out at 77.7%.

In turn, `CC(=O)c1c(C)c2cnc(Nc3ccc(N4CCNCC4)cn3)nc2n(C2CCCC2)c1=O` [palbociclib] + O=C(Nc1cccc(Cl)c1)Nc1ncc(CCNc2ncnc3ccsc23)s1 [SNS314] (first compound 0.04 µM, partner dose 0.0008 µM) came in with a cell count of 73.1%.

Molecule `CC(=O)O[C@@]12CO[C@@H]1C[C@H](O)[C@@]1(C)C(=O)[C@H](O)C3=C(C)[C@@H](OC(=O)[C@H](O)[C@@H](NC(=O)OC(C)(C)C)c4ccccc4)C[C@@](O)([C@@H](OC(=O)c4ccccc4)[C@H]21)C3(C)C` [Docetaxel] + N#Cc1c(O)c2c(-c3ccc(-c4ccccc4O)cc3)csc2[nH]c1=O [A769662] (first compound 0.0001 µM, partner dose 2 µM) registered a cell count of 72%.

Turning to `Nc1ccn([C@@H]2O[C@H](CO)[C@@H](O)C2(F)F)c(=O)n1` [gemcitabine] + CC(C)CCN1c2nc(Nc3cc(F)c(O)c(F)c3)ncc2N(C)C(=O)C1C [BID1870] (first compound 0.0004 µM, partner dose 0.2 µM), the cell count was found to be 96.6%.

`Nc1nc(F)nc2c1ncn2[C@@H]1O[C@H](CO)[C@@H](O)[C@@H]1O` [fludarabine] + N#Cc1c(O)c2c(-c3ccc(-c4ccccc4O)cc3)csc2[nH]c1=O [A769662] (first compound 0.2 µM, partner dose 2 µM): the cell count was found to be 63%.

The molecule `Nc1ccn([C@@H]2O[C@H](CO)[C@@H](O)C2(F)F)c(=O)n1` [gemcitabine] + Cc1cc([N+](=O)[O-])ccc1NS(=O)(=O)c1cc(Cl)ccc1Cl [FH535] (first compound 0.0004 µM, partner dose 1 µM) came in with a cell count of 103%.

In turn, `Nc1ccn([C@@H]2O[C@H](CO)[C@@H](O)C2(F)F)c(=O)n1` [gemcitabine] + Cc1cc(N2CCOCC2)cc2[nH]c(-c3c(NC[C@@H](O)c4cccc(Cl)c4)cc[nH]c3=O)nc12 [BMS536924] (first compound 0.0004 µM, partner dose 0.2 µM) had a cell count of 98.8%.

In turn, `Nc1nc(F)nc2c1ncn2[C@@H]1O[C@H](CO)[C@@H](O)[C@@H]1O` [fludarabine] + CO[C@@H]1[C@H](N(C)C(=O)c2ccccc2)C[C@H]2O[C@]1(C)n1c3ccccc3c3c4c(c5c6ccccc6n2c5c31)C(=O)NC4 [Midostaurin] (first compound 0.2 µM, partner dose 0.08 µM) returned a cell count of 48.6%.

For `Nc1ncn([C@H]2C[C@H](O)[C@@H](CO)O2)c(=O)n1` [decitabine] + O=C1NC(=O)/C(=C/c2ccc(-c3ccc(F)cc3O)o2)S1 [AS252424] (first compound 0.1 µM, partner dose 1 µM), the cell count stood at 107%.
